The sequences are guide strands of siRNAs; only the seed at positions 2 to 7 varies.
Columns and labels:
GL261 = assay: cell viability relative to siNT1 (ATP content); H4 human neuroglioma and GL261 mouse glioma; higher = less toxic; conditions: siRNA concentration 25 nM; 96 h; mouse
H4 = assay: as above; conditions: siRNA concentration 10 nM; 96 h; human
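Also: cells reverse transfected with siRNA duplexes via lipid reagent, ATP read by luminescence, triplicate wells, values scaled to mean viability with non-targeting control siNT1.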

Sequence	cell viability (GL261)	cell viability (H4)
UGCGCAAACAUGUAAACCA	68.4%	104%
UGCGCACACAUGUAAACCA	29.5%	111%
UGCGCAGACAUGUAAACCA	40.6%	57.7%
UGCGCAUACAUGUAAACCA	45.6%	84%
UGCGCCAACAUGUAAACCA	41.9%	85.9%
UGCGCCCACAUGUAAACCA	33.1%	53%
UGCGCCGACAUGUAAACCA	34.9%	87.6%
UGCGCCUACAUGUAAACCA	57%	56.6%
UGCGCGAACAUGUAAACCA	53.6%	75.8%
UGCGCGCACAUGUAAACCA	49.1%	73.3%
UGCGCGGACAUGUAAACCA	21.4%	70.1%
UGCGCGUACAUGUAAACCA	46.3%	96.8%
UGCGCUAACAUGUAAACCA	55.5%	117%
UGCGCUCACAUGUAAACCA	21.5%	66.6%
UGCGCUGACAUGUAAACCA	47.2%	65.4%
UGCGCUUACAUGUAAACCA	27.1%	122%
UGCGGAAACAUGUAAACCA	40.5%	67%
UGCGGACACAUGUAAACCA	14%	35.6%
UGCGGAGACAUGUAAACCA	24.1%	42.4%
UGCGGAUACAUGUAAACCA	20%	50.2%
UGCGGCAACAUGUAAACCA	14.3%	39.3%
UGCGGCCACAUGUAAACCA	13.7%	50.6%

Sequence	cell viability (GL261)	cell viability (H4)
UGCGGCGACAUGUAAACCA	5.9%	11.9%
UGCGGCUACAUGUAAACCA	11.6%	14.1%
UGCGGGAACAUGUAAACCA	23.3%	39.5%
UGCGGGCACAUGUAAACCA	12.4%	16.7%
UGCGGGGACAUGUAAACCA	13%	10.9%
UGCGGGUACAUGUAAACCA	20.8%	44.3%
UGCGGUAACAUGUAAACCA	36.6%	67.9%
UGCGGUCACAUGUAAACCA	5.54%	7.79%
UGCGGUGACAUGUAAACCA	31.4%	31.5%
UGCGGUUACAUGUAAACCA	27.7%	47.7%
UGCGUAAACAUGUAAACCA	47.5%	90.6%
UGCGUACACAUGUAAACCA	55.4%	128%
UGCGUAGACAUGUAAACCA	52.8%	94.6%
UGCGUAUACAUGUAAACCA	51.8%	99.8%
UGCGUCAACAUGUAAACCA	36.8%	76.3%
UGCGUCCACAUGUAAACCA	37.3%	41.9%
UGCGUCGACAUGUAAACCA	30.6%	89.3%
UGCGUCUACAUGUAAACCA	43.6%	57.7%
UGCGUGAACAUGUAAACCA	49.8%	77.1%
UGCGUGCACAUGUAAACCA	22.7%	69.8%
UGCGUGGACAUGUAAACCA	36.8%	84.5%
UGCGUGUACAUGUAAACCA	41.7%	51.4%

Sequence	cell viability (GL261)	cell viability (H4)
UGCGUUAACAUGUAAACCA	49.6%	73.4%
UGCGUUCACAUGUAAACCA	36.6%	50.5%
UGCGUUGACAUGUAAACCA	45.9%	76.1%
UGCGUUUACAUGUAAACCA	25%	108%
UGCUAAAACAUGUAAACCA	56.7%	103%
UGCUAACACAUGUAAACCA	9.54%	2.58%
UGCUAAGACAUGUAAACCA	49.3%	88%
UGCUAAUACAUGUAAACCA	26.7%	31.8%
UGCUACAACAUGUAAACCA	42.1%	92.4%
UGCUACCACAUGUAAACCA	30.7%	8.55%
UGCUACGACAUGUAAACCA	60.3%	74.4%
UGCUACUACAUGUAAACCA	28.3%	10.3%
UGCUAGAACAUGUAAACCA	59.5%	82.5%
UGCUAGCACAUGUAAACCA	19.3%	8.44%
UGCUAGGACAUGUAAACCA	62.9%	40%
UGCUAGUACAUGUAAACCA	33.3%	44%
UGCUAUAACAUGUAAACCA	44.1%	75.5%
UGCUAUCACAUGUAAACCA	21.1%	56.8%
UGCUAUGACAUGUAAACCA	62.6%	77.2%
UGCUAUUACAUGUAAACCA	47.6%	64.9%
UGCUCAAACAUGUAAACCA	70.4%	108%
UGCUCACACAUGUAAACCA	51.8%	57.9%

Sequence	cell viability (GL261)	cell viability (H4)
UGCUCAGACAUGUAAACCA	51.2%	62.3%
UGCUCAUACAUGUAAACCA	47.7%	79.4%
UGCUCCAACAUGUAAACCA	56.9%	34.9%
UGCUCCCACAUGUAAACCA	12.4%	31.3%
UGCUCCGACAUGUAAACCA	32.2%	52%
UGCUCCUACAUGUAAACCA	36.6%	22.6%
UGCUCGAACAUGUAAACCA	54.8%	94.6%
UGCUCGCACAUGUAAACCA	42.5%	46.4%
UGCUCGGACAUGUAAACCA	47.3%	68.1%
UGCUCGUACAUGUAAACCA	37.1%	57.9%
UGCUCUAACAUGUAAACCA	57.8%	93.3%
UGCUCUCACAUGUAAACCA	14%	64.7%
UGCUCUGACAUGUAAACCA	27.7%	44.6%
UGCUCUUACAUGUAAACCA	49.1%	82.1%
UGCUGAAACAUGUAAACCA	33.8%	77.3%
UGCUGACACAUGUAAACCA	25.5%	27.7%
UGCUGAGACAUGUAAACCA	36.7%	66.3%
UGCUGAUACAUGUAAACCA	14%	48.4%
UGCUGCAACAUGUAAACCA	13.2%	62.8%
UGCUGCCACAUGUAAACCA	17.4%	15.4%

Reference: the supplement of paper PMC8948288
